Source: the supplement of paper PMC12217912
Some of the results follow. The full chains were built here from the parent and the listed change. Values near 0.05 are background.

B1: TEV protease; numbered along this chain (parent)
chain: MGESLFKGPRDYNPISSSICHLTNESDGHTTSLYGIGFGPFIITNKHLFRRNNGTLVVQSLHGVFKVKDTTTLQQHLVDGRDMIIIRMPKDFPPFPQKLKFREPQREERICLVTTNFQTKSMSSMVSDTSCTFPSGDGIFWKHWIQTKDGQCGSPLVSTRDGFIVGIHSASNFTNTNNYFTSVPKNFMELLTNQEAQQWVSGWRLNADSVLWGGHKVFMVKPEEPFQPVKEATQL

Variants of: B1
Assay: raw area under fraction-flipped curve 0-4 h after induction (AUC4h, not background-subtracted), DNA-recorder readout of cleavage of the substrate (dimensionless); higher = more cleavage of the substrate by the protease variant
Conditions: temperature: 34 °C; time window: 0-4 h after rhamnose induction
Procedure: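 In vivo DNA recorder in E. coli TOP10(DE3) ΔrhaA at 34 °C. Each TEVp single-site mutant (parent TEVp 0) is paired with a single-site variant of the 7-mer TEVs (canonical ENLYFQ|S). The substrate sits between flexible linkers in a Bxb1-sfGFP-TEVs-SsrA fusion, so cleavage stabilises Bxb1 and speeds flipping of a recombination array, read by NGS. The value is the raw area under the fraction-flipped curve over 0-4 h after rhamnose induction (AUC4h), with ≥20 reads per time point. It is not background-subtracted; inactive controls average about 0.047.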
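Note: Bxb1 expression induced with 0.2% (w/v) L-rhamnose at OD600 near 0.5, cultures sampled hourly, flipped fraction per protease–substrate barcode pair counted by paired-end Illumina sequencing.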

Variant	area with substrate EALYFQS	area with substrate EELYFQS	area with substrate EHLYFQS	area with substrate EILYFQS	area with substrate EKLYFQS	area with substrate ELLYFQS	area with substrate EMLYFQS	area with substrate EQLYFQS	area with substrate ERLYFQS	area with substrate ESLYFQS	area with substrate EVLYFQS	area with substrate EWLYFQS	area with substrate EYLYFQS	area with substrate ECLYFQS	area with substrate EDLYFQS	area with substrate EFLYFQS	area with substrate EGLYFQS	area with substrate EPLYFQS	area with substrate ETLYFQS
I164Y	0.0535	0.0648	0.0575	0.0521	0.0565	0.0582	0.0583	0.0636	0.0597	0.0596	0.0368	0.0624	0.0531						
I164T	0.0943		0.0861	0.0637	0.0841		0.0926	0.0832	0.0885	0.0728	0.0656	0.0739		0.0515	0.095	0.0755	0.0707		
I164P	0.052		0.0523	0.0451	0.0428	0.05	0.0559	0.0475	0.0554	0.051	0.0545	0.0614	0.0504		0.0479	0.0435	0.0565	0.028	
W203C	0.0821	0.0737		0.0502		0.0704		0.0739	0.0753	0.0546	0.0519	0.082		0.0622	0.0721		0.037	0.0768	0.0666
W203E	0.0607		0.0509		0.0703	0.0608	0.108		0.0605	0.0539	0.0846	0.0523		0.0598					
T176W	0.0796	0.0548		0.0466				0.0731	0.073	0.0602	0.0552		0.0665	0.0752	0.0703	0.0725	0.0458		0.0591
D161H	0.0768			0.0541	0.0765			0.0706	0.0738	0.0833	0.0511			0.0933	0.102			0.0821	
Q151W	0.0967	0.078	0.102	0.0667	0.0877	0.0824	0.092	0.107	0.0635	0.0802	0.0955	0.0864	0.0712	0.0899	0.105	0.0814	0.072		
Q151C	0.0833	0.129	0.0932	0.0791	0.0857	0.079	0.0887	0.0832	0.118	0.0826	0.0704	0.0504	0.0697	0.0822	0.0931	0.0775	0.0755		
R204W	0.168	0.119	0.116	0.0959	0.122	0.105	0.119	0.128	0.108	0.0975	0.102		0.0862	0.1	0.117	0.0923	0.105		0.106
I145Y	0.0833	0.0851	0.0682	0.0439	0.103	0.066		0.07	0.0718	0.071	0.0658			0.066				0.064	
P155C	0.11		0.0951	0.0806		0.088	0.097	0.0962	0.0699	0.09	0.0585			0.0833	0.0649	0.0971	0.069	0.0852	0.113
